# This is one part of the list.
# System: PfSIP2 AP2 domain 1 (GST-tagged)
# Assay: gcPBM binding intensity (ln(normalized median fluorescence intensity)); higher = stronger DNA binding
# In short: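 Binding of GST-tagged P. falciparum DNA-binding domains, expressed in E. coli and used at about 25 μg on average, was carried out for 1 h in 1× PBS containing 1% milk, 0.2 mg/ml BSA, 0.5% salmon testes DNA and 0.03% Triton X-100. The target was an Agilent 4 × 180k array of primer-extended double-stranded 36-bp intergenic genomic probes plus negative controls, read with Alexa488 anti-GST antibody at 488 nm. Binding intensity is the highest Masliner-normalised natural-log median intensity across replicate spots of either probe orientation.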
row,Sequence,gcPBM binding intensity (ln)
1,GAAAAAAAAAGTTAAGCACACACATGAATAAATAAT [CACACA_site8179],6.91
2,TTTTGATGCTTTAAATGTACAAGGGTTCTTATGAAA [XGTACX_site831],6.97
3,AAAAAAAAAAAATAGAAAAAAAAATAAAATAAAAAA [CACACA_negctrl_site562],6.74
4,TGTATATAATTTATATGTACATATATTTTATTTTGT [XGTACX_site1905],7.2
5,AAACCAAAAATAACACGTACAAAAATAAAAAGTATA [XGTACX_site4261],7.11
6,AAAACATATTTTAAAAGTACTTGAAAAAAAATTTTC [XGTACX_site3940],6.9
7,CATATATATATATGAACACACAAAAAGAATATTTCC [CACACA_site1493],7.13
8,TCTATACCTATTCTTACACACATATGTATTTATATA [CACACA_site4475],7.25
9,AATTATATTTAGTATATGCACACTTTATGTTTGTTA [CACACA_site2025],7.9
10,GTAGAAAGAAAAATTAGTACTTAAATATTATAAAAA [XGTACX_site8458],6.79
11,TTCTATGCATTTATAGTGCATGTAAAATATAAGATA [GTGCAC_site9466],10.9
12,TTTAAAAAAAAAAAAAATTTTTTTTTTTTTTTTTTA [CACACA_negctrl_site1415],6.61
13,GACTTTTTCATTTTTAGTACACATATATATTTCCCT [XGTACX_site3511],7.58
14,AAAAAAAAAAAACATACACACACACTAATATTTATA [CACACA_site8038],7.14
15,TTAAAAAATCACAACACACACACACCCAAAAAAAAA [CACACA_site1445],7.03
16,ATATATTTTTAATATGCACACAAGAATACATTCACA [CACACA_site914],9.27
17,TTTTAAAAAATATAATAATATAAATATTTTATACGT [TGCATGCA_negctrl_site252],6.78
18,TTCTGTATACGGTGTGCACACAATTAAAAAAAAAAA [CACACA_site1416],9.47
19,AACATATAAAAATATGCACACACAGGAATACAAACA [CACACA_site8127],7.68
20,TTAAATAACCTCAAGGATAAGAAAAAATTAAAAATT [CACACA_negctrl_site1336],6.54
21,CTTTATATATATTGCGTGCACATTTTTTTTTTTTTT,9.52
22,GAAATAATAAAATCGACACACAAAAAAAAAAAAAAA [CACACA_site3476],6.82

row,Sequence,gcPBM binding intensity (ln)
1,CTATTTAAAATTTGAACACACATTATTTATTTTAAA [CACACA_site3114],6.9
2,AATAAATACAAAAATGTACACACATATATATATTTT [CACACA_site9167],6.97
3,TCAATATATATAAGAAGTACATGTGAATGAAAAAAA [XGTACX_site1674],7.14
4,GGATTTTACCATAGCACACATATATGAATATTTTTC [CACACA_site1814],7.17
5,TTTATATACTATCAACGTACAAAAGTAATAAAAATA [XGTACX_site4343],7.27
6,CATTTTATTTTCTTTGTGCACAAAAATATTTTTTCT,8.78
7,TTGTAACAAAAGTACACACACATTTCTATAAATTTT [CACACA_site2772],7.15
8,AAAGTTATGATATATACACACATATAAATATTAAAT [CACACA_site6361],6.98
9,TGTTCTAATTTTAATTGTACATATATACATATATAT [XGTACX_site7290],7.21
10,GTAAATATATATATATATATATATATATATATATAT [GTGCAC_negctrl_site239],9.48
11,TTTTTTTTTTTTTTTTTTTTTTTCTACCTATTTATT [CACACA_negctrl_site94],6.8
12,TATGTATATTGAGATTGTACTTGTAATATTAAACAT [XGTACX_site3878],7.11
13,TTGTATAAAATATGTAGTACAATAATATAACATTTT [XGTACX_site8607],7.21
14,AAGGAATAAAATTTAGAAGACAATTTTATTTCAGTA [XGTACX_negctrl_site331],6.71
15,ATATCAAATAATTTAGTGCACTTTTTTTTTTCTTTT [GTGCAC_site9629],10.4
16,GGTATTTTCACATATAGTACACAAAAATAAAATAAA [XGTACX_site2139],7.79
17,TTTATACTTTCAAAATGTACATATATATATATATAT [XGTACX_site6241],9.29
18,ATTTCTCTATCGTAATGTACAAAAAAAAGGGAAAAG [XGTACX_site1335],7.11
19,ATTGAAGGGAAATATATAATCATATTCAAAATAAAA [CACACA_negctrl_site728],6.62
20,CTAATCATAAAATATACACACACGGATACATTAAAT [CACACA_site2685],7.02
21,TAATATATAATTTTATGTACATAATTATAAACCCAT [XGTACX_site919],7.25
22,AAAAAATACCAAAGGGGTACTTACACATAATACTTA [XGTACX_site2111],6.83

# From the supplement of paper PMC11417369
